# Out of some 45,000 compounds screened, about 200 (0.44%) were called active. Inconclusive means that the source gave no clear call. Such entries were picked first, then a sample of the others. The call rests on the fitted dose curve; in most records, active means well fitted activation curve with a large enough effect; inconclusive means small, poorly fitted or top-dose-only effect; inactive means no such curve, though single readings can be large or run the other way. A potency beside an inconclusive call is a rough fit, not a confirmed value.
# Assay: qHTS of TDP-43 Inhibitors: NCGC Sytravon Library Screen; further: nearly all actives have a fitted effect of over 55% in size; on growth rescue (activation): 0% is about no effect
# Conditions: yeast TDP-43 toxicity rescue, BacTiter-Glo growth, 24 h; growth rescue (activation): at 46.1 µM (top of the series)
# In short: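 TDP-43-expressing yeast, pregrown in raffinose, seeded at OD600 0.02 in galactose medium with compound for 24 hr at 30 deg C. Growth read by BacTiter-Glo luminescence, so rescue of toxicity appears as activation.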
# Potency means the concentration at half of the fitted maximal effect; tags describe the fitted curve by direction and shape.
Compound,growth rescue (activation),Potency
CCOC(=O)c1cn(CC(=O)Nc2cccc(F)c2)nn1,inactive: 13.6%,–
Cn1nc(-c2ccc(OCC(=O)Nc3ccccc3)cc2)c2ccccc2c1=O,–,"inconclusive: 14.1 µM [activator, partial curve, poor fit]"
C=CCNC(=S)N1CCN(c2cccc(C(F)(F)F)c2)CC1,–,"inconclusive: 35.5 µM [activator, partial curve, poor fit]"
COc1ccc(N)cc1S(=O)(=O)Nc1ccccc1Cl,–,"inconclusive: 35.5 µM [activator, single point]"
S=C(Nc1ccc(Br)cc1Cl)NC1CCN(Cc2ccccc2)CC1,inactive: 1.2%,–
CCc1cccc(-n2nnc(-c3nc(-c4ccc5c(c4)OCO5)no3)c2C)c1,inactive: 4.65%,–
Cn1nc(C(C)(C)C)cc1NC(=O)C1(C)CCN1C(=O)C1(c2ccccc2)CCCC1 (centres undefined),–,"inconclusive: 22.4 µM [activator, single point]"
Cc1cc(C)nc(NC(=NCCc2c[nH]c3ccccc23)NC(=O)Nc2ccc(Cl)c(Cl)c2)n1,–,"inconclusive: 22.4 µM [activator, partial curve, poor fit]"
CCCCSc1nc(C)c(C(C)=O)cc1C#N,–,active: 6.31 µM
COc1ccc(Cl)cc1S(=O)(=O)Nc1ccc2c(c1)n(C)c(=O)n2C,inactive: 7.27%,–
COc1ccc(CN(C)Cc2nc3cc(OC)c(OC)cc3c(=O)[nH]2)c(OC)c1,inactive: 5.3%,–
COc1ccc(F)cc1-c1cc(NC(C)=O)c2ncc(-c3cc(OC)c(OC)c(OC)c3)n2c1,inactive: 8.22%,–
O=C(c1ccc2c(=O)n3c(nc2c1)CCCCC3)N1CCN(c2ccccc2)CC1,–,"inconclusive: 35.5 µM [activator, single point]"
CC1(C(=O)NS(=O)(=O)c2ccccc2)CCN1C(=O)c1cccc2ccccc12 (centres undefined),inactive: -1.62%,–
COC(=O)Nc1ccc2c(c1)N(C(=O)CCCl)c1ccccc1S2,–,"inconclusive: 7.94 µM [activator, partial curve]"
S=c1[nH]nc(COc2ccc(Cl)cc2)n1Cc1ccco1,–,"inconclusive: 11.2 µM [activator, single point]"
O=C(COC(=O)C1(c2ccccc2F)CCCC1)Nc1ncc(C(F)(F)F)cc1Cl,–,"inconclusive: 11.2 µM [activator, partial curve]"
CCc1c(C)sc(NC(=S)N2CCN(C(=O)C3CCCO3)CC2)c1C(=O)OC (centres undefined),–,"inconclusive: 12.6 µM [activator, partial curve, poor fit]"
CN(C)c1nc(NCc2ccccc2)nc(SCC(=O)Nc2ccccc2Cl)n1,–,"inconclusive: 20 µM [activator, single point]"

# From PubChem BioAssay AID1347073 (National Center for Advancing Translational Sciences (NCATS), 2019)
